Results: publication PMC6633398
Results are given in words; binding and its absence hold for the method and conditions named. In cells and extracts the contact can be indirect. Some binding calls cover weakened binding; strength is not graded here.

By UniProt entry, the sequences of proteins in these tests, tags left out. Where a name states a change or a piece, a line headed by the entry shows the natural chain unless it says otherwise.
UniProt O43681: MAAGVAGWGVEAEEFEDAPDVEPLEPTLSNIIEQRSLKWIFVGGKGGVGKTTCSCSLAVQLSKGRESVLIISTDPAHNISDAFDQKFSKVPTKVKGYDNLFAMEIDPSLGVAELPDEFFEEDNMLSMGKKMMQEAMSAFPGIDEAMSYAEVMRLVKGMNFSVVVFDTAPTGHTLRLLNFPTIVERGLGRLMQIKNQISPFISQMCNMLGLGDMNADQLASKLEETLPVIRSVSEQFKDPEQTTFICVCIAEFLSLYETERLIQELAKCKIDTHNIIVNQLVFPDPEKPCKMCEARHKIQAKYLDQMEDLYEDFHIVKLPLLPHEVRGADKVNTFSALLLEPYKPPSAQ

What follows are binders tested against c-Myc–TRC40_(D74E), ATPase-impaired trap mutant of TRC40 (UniProt O43681) (assay: co-IP; c-Myc–TRC40 variants expressed in transfected HEK293 cells; precipitated with anti-c-Myc agarose from the cytosolic fraction (180,000 g, 1 h) in the absence of detergent; IP buffer 50 mM HEPES, 150 mM NaCl, 1.5 mM MgCl2, 1 mM EGTA, pH 7.4; 2.5 h; endogenous TA proteins detected by western blot).

binding | Binder
no binding | PTP1B (also known as PTPN1) (protein, UniProt P18031 1-435) MEMEKEFEQIDKSGSWAAIYQDIRHEASDFPCRVAKLPKNKNRNRYRDVSPFDHSRIKLHQEDNDYINASLIKMEEAQRSYILTQGPLPNTCGHFWEMVWEQKSRGVVMLNRVMEKGSLKCAQYWPQKEEKEMIFEDTNLKLTLISEDIKSYYTVRQLELENLTTQETREILHFHYTTWPDFGVPESPASFLNFLFKVRESGSLSPEHGPVVVHCSAGIGRSGTFCLADTCLLLMDKRKDPSSVDIKKVLLEMRKFRMGLIQTADQLRFSYLAVIEGAKFIMGDSSVQDQWKELSHEDLEPPPEHIPPPPRPPKRILEPHNGKCREFFPNHQWVKEETQEDKDCPIKEEKGSPLNAAPYGIESMSQDTEVRSRVVGGSLRGAQAASPAKGEPSLPEKDEDHALSYWKPFLVNMCVATVLTAGAYLCYRFLFNSNT
no binding | nesprin SYNE3 (protein, UniProt Q6ZMZ3 1-975) MTQQPQDDFDRSVEDAQAWMKAVQDQLQVNDNTQGPRAALEARLWETEKICQLEPEGRVRVDLVLRMAEALLACCPGDQKPGILARLKDIKAQWEETVTYMTHCHSRIEWVWLHWSEYLLARDEFYRWFQKMMVTLEPHIELQLGLKEKQWQLSHAQVLLHNVDNQAVLLDRLLEEAASLFNRIGDPSVDEDAQKRMKAEYDAVKAKAQKRVDLLEQVAREHEEYQAGVDEFQLWLKAVVEKVNGCLGRNCKLPITQRLSTLQDIAKDFPRGEESLETLEEQSAGVIRNTSPLGAEKITGELEEMRKVLEKLRALWEEEEERLRGLLRSRGAWEQQIKQLEAELSEFRMVLQRLAQEGLQPAAKAGTEDELVAHWRRYSATRAALASEEPRVDRLQAQLKELIVFPHNLKPLSDSVIATIQEYQSLKVKSARLRNAAAVELWQHFQRPLQDLQLWKALAQRLLEVTASLPDLPSLHTFLPQIEAALMESSRLKELLTMLQLKKDLLIGIFGQERATALLEQVAGSMRDRDLLHNSLLQRKSKLQSLLAQHKDFGAAFEPLQRKLLDLQVRVQAEKGLQRDLPGKQAQLSRLQGLQEEGLDLGAQMEAARPLVQENPNHQHKMDQLSSDFQALQRSLEDLVDRCRQSVQEHCTFSHQLLELRQWIVVTTQKLEAHRGEAGPGDAESQEAEFERLVAEFPEKEAQLSLVEAQGWLVMEKSSPEGAAVVQEELRELAESWRALRLLEESLLSLIRNWHLQRMEVDSGKKMVFTNNIPKSGFLINPMDPIPRHRRRANLLQEEEGSHEDFSQLLRNFGQWLQVENSKLVRIIAMRTSTAEDLRTRKSKLQELEARVPEGQHLFENLLRLGPARGTSDELEDLRYQWMLYKSKLKDSGHLLTQSSPGEPTGFQKTRRWRGLGSLFRRACCVALPLQLLLLLFLLLLFLLPIREEDRSCTLANNFARSFTLMLRYNGPPPT
binds | syntaxin Stx5 (protein, UniProt Q13190 1-355) MIPRKRYGSKNTDQGVYLGLSKTQVLSPATAGSSSSDIAPLPPPVTLVPPPPDTMSCRDRTQEFLSACKSLQTRQNGIQTNKPALRAVRQRSEFTLMAKRIGKDLSNTFAKLEKLTILAKRKSLFDDKAVEIEELTYIIKQDINSLNKQIAQLQDFVRAKGSQSGRHLQTHSNTIVVSLQSKLASMSNDFKSVLEVRTENLKQQRSRREQFSRAPVSALPLAPNHLGGGAVVLGAESHASKDVAIDMMDSRTSQQLQLIDEQDSYIQSRADTMQNIESTIVELGSIFQQLAHMVKEQEETIQRIDENVLGAQLDVEAAHSEILKYFQSVTSNRWLMVKIFLILIVFFIIFVVFLA
binds | LAP2B (protein, UniProt P42167 1-454) MPEFLEDPSVLTKDKLKSELVANNVTLPAGEQRKDVYVQLYLQHLTARNRPPLPAGTNSKGPPDFSSDEEREPTPVLGSGAAAAGRSRAAVGRKATKKTDKPRQEDKDDLDVTELTNEDLLDQLVKYGVNPGPIVGTTRKLYEKKLLKLREQGTESRSSTPLPTISSSAENTRQNGSNDSDRYSDNEEDSKIELKLEKREPLKGRAKTPVTLKQRRVEHNQSYSQAGITETEWTSGSSKGGPLQALTRESTRGSRRTPRKRVETSEHFRIDGPVISESTPIAETIMASSNESLVVNRVTGNFKHASPILPITEFSDIPRRAPKKPLTRAEVGEKTEERRVERDILKEMFPYEASTPTGISASCRRPIKGAAGRPLELSDFRMEESFSSKYVPKYVPLADVKSEKTKKGRSIPVWIKILLFVVVAVFLFLVYQAMETNQVNPFSNFLHVDPRKSN
binds | Stx8 (protein, UniProt Q9UNK0 1-236) MAPDPWFSTYDSTCQIAQEIAEKIQQRNQYERKGEKAPKLTVTIRALLQNLKEKIALLKDLLLRAVSTHQITQLEGDRRQNLLDDLVTRERLLLASFKNEGAEPDLIRSSLMSEEAKRGAPNPWLFEEPEETRGLGFDEIRQQQQKIIQEQDAGLDALSSIISRQKQMGQEIGNELDEQNEIIDDLANLVENTDEKLRNETRRVNMVDRKSASCGMIMVILLLLVAIVVVAVWPTN
binds | GOSR2 (protein, UniProt O14653 1-212) MDPLFQQTHKQVHEIQSCMGRLETADKQSVHIVENEIQASIDQIFSRLERLEILSSKEPPNKRQNARLRVDQLKYDVQHLQTALRNFQHRRHAREQQERQREELLSRTFTTNDSDTTIPMDESLQFNSSLQKVHNGMDDLILDGHNILDGLRTQRLTLKGTQKKILDIANMLGLSNTVMRLIEKRAFQDKYFMIGGMLLTCVVMFLVVQYLT
binds | UBE2J1 (protein, UniProt Q9Y385 1-318) METRYNLKSPAVKRLMKEAAELKDPTDHYHAQPLEDNLFEWHFTVRGPPDSDFDGGVYHGRIVLPPEYPMKPPSIILLTANGRFEVGKKICLSISGHHPETWQPSWSIRTALLAIIGFMPTKGEGAIGSLDYTPEERRALAKKSQDFCCEGCGSAMKDVLLPLKSGSDSSQADQEAKELARQISFKAEVNSSGKTISESDLNHSFSLTDLQDDIPTTFQGATASTSYGLQNSSAASFHQPTQPVAKNTSMSPRQRRAQQQSQRRLSTSPDVIQGHQPRDNHTDHGGSAVLIVILTLALAALIFRRIYLANEYIFDFEL
binds | syntaxin Stx6 (protein, UniProt O43752 1-255) MSMEDPFFVVKGEVQKAVNTAQGLFQRWTELLQDPSTATREEIDWTTNELRNNLRSIEWDLEDLDETISIVEANPRKFNLDATELSIRKAFITSTRQVVRDMKDQMSTSSVQALAERKNRQALLGDSGSQNWSTGTTDKYGRLDRELQRANSHFIEEQQAQQQLIVEQQDEQLELVSGSIGVLKNMSQRIGGELEEQAVMLEDFSHELESTQSRLDNVMKKLAKVSHMTSDRRQWCAIAILFAVLLVVLILFLVL
binds | golgin-84 (also known as GOLGA5) (protein, UniProt Q8TBA6 1-731) MSWFVDLAGKAEDLLNRVDQGAATALSRKDNASNIYSKNTDYTELHQQNTDLIYQTGPKSTYISSAADNIRNQKATILAGTANVKVGSRTPVEASHPVENASVPRPSSHFVRRKKSEPDDELLFDFLNSSQKEPTGRVEIRKEKGKTPVFQSSQTSSVSSVNPSVTTIKTIEENSFGSQTHEAASNSDSSHEGQEESSKENVSSNAACPDHTPTPNDDGKSHELSNLRLENQLLRNEVQSLNQEMASLLQRSKETQEELNKARARVEKWNADHSKSDRMTRGLRAQVDDLTEAVAAKDSQLAVLKVRLQEADQLLSTRTEALEALQSEKSRIMQDQSEGNSLQNQALQTFQERLHEADATLKREQESYKQMQSEFAARLNKVEMERQNLAEAITLAERKYSDEKKRVDELQQQVKLYKLNLESSKQELIDYKQKATRILQSKEKLINSLKEGSGFEGLDSSTASSMELEELRHEKEMQREEIQKLMGQIHQLRSELQDMEAQQVNEAESAREQLQDLHDQIAGQKASKQELETELERLKQEFHYIEEDLYRTKNTLQSRIKDRDEEIQKLRNQLTNKTLSNSSQSELENRLHQLTETLIQKQTMLESLSTEKNSLVFQLERLEQQMNSASGSSSNGSSINMSGIDNGEGTRLRNVPVLFNDTETNLAGMYGKVRKAASSIDQFSIRLGIFLRRYPIARVFVIIYMALLHLWVMIVLLTYTPEMHHDQPYGK
binds | Stx18 (protein, UniProt Q9P2W9 1-335) MAVDITLLFRASVKTVKTRNKALGVAVGGGVDGSRDELFRRSPRPKGDFSSRAREVISHIGKLRDFLLEHRKDYINAYSHTMSEYGRMTDTERDQIDQDAQIFMRTCSEAIQQLRTEAHKEIHSQQVKEHRTAVLDFIEDYLKRVCKLYSEQRAIRVKRVVDKKRLSKLEPEPNTKTRESTSSEKVSQSPSKDSEENPATEERPEKILAETQPELGTWGDGKGEDELSPEEIQMFEQENQRLIGEMNSLFDEVRQIEGRVVEISRLQEIFTEKVLQQEAEIDSIHQLVVGATENIKEGNEDIREAIKNNAGFRVWILFFLVMCSFSLLFLDWYDS
no binding | MOSPD2 (protein, UniProt Q8NHP6 1-518) MAENHAQNKAKLISETRRRFEAEYVTDKSDKYDARDVERLQQDDNWVESYLSWRHNIVDETLKMLDESFQWRKEISVNDLNESSIPRWLLEIGVIYLHGYDKEGNKLFWIRVKYHVKDQKTILDKKKLIAFWLERYAKRENGKPVTVMFDLSETGINSIDMDFVRFIINCFKVYYPKYLSKIVIFDMPWLMNAAFKIVKTWLGPEAVSLLKFTSKNEVQDYVSVEYLPPHMGGTDPFKYSYPPLVDDDFQTPLCENGPITSEDETSSKEDIESDGKETLETISNEEQTPLLKKINPTESTSKAEENEKVDSKVKAFKKPLSVFKGPLLHISPAEELYFGSTESGEKKTLIVLTNVTKNIVAFKVRTTAPEKYRVKPSNSSCDPGASVDIVVSPHGGLTVSAQDRFLIMAAEMEQSSGTGPAELTQFWKEVPRNKVMEHRLRCHTVESSKPNTLTLKDNAFNMSDKTSEDICLQLSRLLESNRKLEDQVQRCIWFQQLLLSLTMLLLAFVTSFFYLLYS
no binding | ZFPL1 (protein, UniProt O95159 1-310) MGLCKCPKRKVTNLFCFEHRVNVCEHCLVANHAKCIVQSYLQWLQDSDYNPNCRLCNIPLASRETTRLVCYDLFHWACLNERAAQLPRNTAPAGYQCPSCNGPIFPPTNLAGPVASALREKLATVNWARAGLGLPLIDEVVSPEPEPLNTSDFSDWSSFNASSTPGPEEVDSASAAPAFYSQAPRPPASPGRPEQHTVIHMGNPEPLTHAPRKVYDTRDDDRTPGLHGDCDDDKYRRRPALGWLARLLRSRAGSRKRPLTLLQRAGLLLLLGLLGFLALLALMSRLGRAAADSDPNLDPLMNPHIRVGPS
